One protein from paper PMC12747267 (bioRxiv, 2025) can be followed below.

The data set concerns the molecule itself. Kind of data set: cryo-EM structure.

B1: human nonmuscle myosin-2B (NM2B) heavy chain (natural protein)
chain: not shown
On to B1, for which the binding result was “binds”.
